From the supplement of paper PMC12217912
The list shows a part of the results. Sequences were assembled here from the parent chain. Inactive controls read about 0.05.

B1: TEV protease; numbered along this chain (parent)
chain: MGESLFKGPRDYNPISSSICHLTNESDGHTTSLYGIGFGPFIITNKHLFRRNNGTLVVQSLHGVFKVKDTTTLQQHLVDGRDMIIIRMPKDFPPFPQKLKFREPQREERICLVTTNFQTKSMSSMVSDTSCTFPSGDGIFWKHWIQTKDGQCGSPLVSTRDGFIVGIHSASNFTNTNNYFTSVPKNFMELLTNQEAQQWVSGWRLNADSVLWGGHKVFMVKPEEPFQPVKEATQL

Variants of: B1
Assay: raw area under fraction-flipped curve 0-4 h after induction (AUC4h, not background-subtracted), DNA-recorder readout of cleavage of the substrate (dimensionless); higher = more cleavage of the substrate by the protease variant
Conditions: temperature: 34 °C; time window: 0-4 h after rhamnose induction
Protocol: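 In vivo DNA recorder in E. coli TOP10(DE3) ΔrhaA at 34 °C. Each TEVp single-site mutant (parent TEVp 0) is paired with a single-site variant of the 7-mer TEVs (canonical ENLYFQ|S). The substrate sits between flexible linkers in a Bxb1-sfGFP-TEVs-SsrA fusion, so cleavage stabilises Bxb1 and speeds flipping of a recombination array, read by NGS. The value is the raw area under the fraction-flipped curve over 0-4 h after rhamnose induction (AUC4h), with ≥20 reads per time point. It is not background-subtracted; inactive controls average about 0.047.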
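Note: Bxb1 expression induced with 0.2% (w/v) L-rhamnose at OD600 near 0.5, cultures sampled hourly, flipped fraction per protease–substrate barcode pair counted by paired-end Illumina sequencing.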

| Variant | area with substrate ENLYFQC | area with substrate ENLYFQD | area with substrate ENLYFQF | area with substrate ENLYFQG | area with substrate ENLYFQH | area with substrate ENLYFQI | area with substrate ENLYFQL | area with substrate ENLYFQR | area with substrate ENLYFQS | area with substrate ENLYFQT | area with substrate ENLYFQV | area with substrate ENLYFQW | area with substrate ENLYFQY | area with substrate ENLYFQE | area with substrate ENLYFQK | area with substrate ENLYFQQ | area with substrate ENLYFQM | area with substrate ENLYFQN | area with substrate ENLYFQP |
| --- | --- | --- | --- | --- | --- | --- | --- | --- | --- | --- | --- | --- | --- | --- | --- | --- | --- | --- | --- |
| MGESLFKGPRDYNPISSSCCHLTNESDGHTTSLYGIGFGPFIITNKHLFRRNNGTLVVQSLHGVFKVKDTTTLQQHLVDGRDMIIIRMPKDFPPFPQKLKFREPQREERICLVTTNFQTKSMSSMVSDTSCTFPSGDGIFWKHWIQTKDGQCGSPLVSTRDGFIVGIHSASNFTNTNNYFTSVPKNFMELLTNQEAQQWVSGWRLNADSVLWGGHKVFMVKPEEPFQPVKEATQL [I19C] | 0.111 | 0.0672 | 0.073 | 0.104 | 0.0851 | 0.0723 | 0.0692 | 0.0633 | 0.0997 | 0.066 | 0.0513 | 0.0645 | 0.0783 |  |  |  |  |  |  |
| MGESLFKGPRDYNPISSSICHLTNESDGHTTSLYGIGFGPFIITNKHLFRRNNGTLVVQSLHGVFKVKDTTTLQQHLVDGRDMIIIRMPKDFPPVPQKLKFREPQREERICLVTTNFQTKSMSSMVSDTSCTFPSGDGIFWKHWIQTKDGQCGSPLVSTRDGFIVGIHSASNFTNTNNYFTSVPKNFMELLTNQEAQQWVSGWRLNADSVLWGGHKVFMVKPEEPFQPVKEATQL [F95V] | 0.089 |  |  |  |  |  | 0.0568 |  | 0.0829 | 0.0524 |  | 0.0631 | 0.0445 | 0.0476 | 0.0396 | 0.0559 |  |  |  |
| MGESLFKGPRDYNPISSSICHLTNESDGHTTSLYGIGFGPFIITNKHLFRRNNGTLVVQSLHGVFKVKDTTTLQQHLVDGRDMIIIRMPKDFPPFPQKLKFDEPQREERICLVTTNFQTKSMSSMVSDTSCTFPSGDGIFWKHWIQTKDGQCGSPLVSTRDGFIVGIHSASNFTNTNNYFTSVPKNFMELLTNQEAQQWVSGWRLNADSVLWGGHKVFMVKPEEPFQPVKEATQL [R102D] | 0.0501 |  |  | 0.0553 |  |  | 0.0568 |  | 0.0532 | 0.0175 |  | 0.0487 |  |  | 0.0379 |  | 0.0503 |  |  |
| MGESLFKGPRDYNPISSSICHLTNESDGHTTSLYGIGFGPFIITNKHLFRRNNGTLVVQSLHGVFKVKDTTTLQQHVVDGRDMIIIRMPKDFPPFPQKLKFREPQREERICLVTTNFQTKSMSSMVSDTSCTFPSGDGIFWKHWIQTKDGQCGSPLVSTRDGFIVGIHSASNFTNTNNYFTSVPKNFMELLTNQEAQQWVSGWRLNADSVLWGGHKVFMVKPEEPFQPVKEATQL [L77V] | 0.0873 |  | 0.0518 | 0.0561 |  |  | 0.0598 | 0.07 | 0.0825 | 0.0557 | 0.0669 | 0.0731 |  |  | 0.0454 | 0.0604 | 0.0755 |  |  |
| MGESLFKGPRDYNPISSSICHLTNESDGHTTSLYGIGFGPFICTNKHLFRRNNGTLVVQSLHGVFKVKDTTTLQQHLVDGRDMIIIRMPKDFPPFPQKLKFREPQREERICLVTTNFQTKSMSSMVSDTSCTFPSGDGIFWKHWIQTKDGQCGSPLVSTRDGFIVGIHSASNFTNTNNYFTSVPKNFMELLTNQEAQQWVSGWRLNADSVLWGGHKVFMVKPEEPFQPVKEATQL [I43C] | 0.0936 | 0.0586 | 0.0477 | 0.0839 |  | 0.0634 | 0.0538 | 0.0498 | 0.0845 | 0.0631 |  | 0.0452 | 0.0697 | 0.052 | 0.0563 | 0.0557 | 0.0678 | 0.07 | 0.0583 |
| MGESLFKGPRDYNPISSSICHLTNESDGHTTSLYGIGFGPFIITNKHLFRRNNGTLVVQSLHGVFKVKDTTTLQQHLVDGRDMIIIRMPKDFPPFPQKLKFREPQREERICLVTTNFQTKSMSSMVSDTSCTFPSGDGIFWKHWIQTKDGQCGSPLVSTRDGFIVGIHSASNFTNTNNYFTSVPKNFMELLTNQEAQQWVSGWRENADSVLWGGHKVFMVKPEEPFQPVKEATQL [L205E] | 0.0746 |  |  |  |  | 0.0631 |  | 0.104 | 0.0835 | 0.0643 |  | 0.0471 |  |  |  |  | 0.0621 | 0.0662 |  |
| MGESLFKGPRDYNPISSSICHLTNESDGHTTSLYGIGFGPFIITNKHLFRRNNGTLVVQSLHGVFKVKDTTTLQQHLVDGRDMIIIRMPKDFPPFPQKLKFREPQREERICLVTTNFQTKSMSSMVSDTSTTFPSGDGIFWKHWIQTKDGQCGSPLVSTRDGFIVGIHSASNFTNTNNYFTSVPKNFMELLTNQEAQQWVSGWRLNADSVLWGGHKVFMVKPEEPFQPVKEATQL [C131T] | 0.145 |  |  | 0.178 |  |  |  | 0.0614 | 0.111 | 0.0801 | 0.0604 |  |  |  |  |  |  | 0.0746 |  |
| MGESLFKGPRDYNPISSSICHLTNESDGHTTSLYGIGFGPFIITNKHLFRRNNGTLVVQSLMGVFKVKDTTTLQQHLVDGRDMIIIRMPKDFPPFPQKLKFREPQREERICLVTTNFQTKSMSSMVSDTSCTFPSGDGIFWKHWIQTKDGQCGSPLVSTRDGFIVGIHSASNFTNTNNYFTSVPKNFMELLTNQEAQQWVSGWRLNADSVLWGGHKVFMVKPEEPFQPVKEATQL [H62M] | 0.0681 |  |  |  |  |  |  | 0.0683 | 0.101 |  | 0.0495 |  |  |  |  | 0.0603 |  |  |  |
| MGESLFKGPRDYNPISSSICHLTNESDGHTTSLYGIGFGPFIITNKHLFRRNNGTLVVQSLHGVFKVKDTTTLQQHLVDGRDMIIIRMPKDFPPFPQKLKFREPQREERICLVTTNFQTKSMSSMVSDTSCTFPSGDGIFWKHWIQTKDGQCGSPLVSTRDGFIVGIHSASNFTNTNNYFTSVPKNFMELLTNQEAQQWVSGWRLNVDSVLWGGHKVFMVKPEEPFQPVKEATQL [A207V] | 0.117 | 0.0631 |  | 0.12 |  | 0.0765 | 0.0682 | 0.056 | 0.105 | 0.0705 |  | 0.0556 |  |  | 0.0737 |  | 0.102 | 0.0699 | 0.0571 |
| MGESLFKGPRDYNPISSSICHLTNESDGHTTSLYGIGFGPFIITNKHLFRRNNGTLVVQSLHGVFKVKDTTTLQQHLVDGRDMIIIRMPKDFPPFPQKLKFREPQREERQCLVTTNFQTKSMSSMVSDTSCTFPSGDGIFWKHWIQTKDGQCGSPLVSTRDGFIVGIHSASNFTNTNNYFTSVPKNFMELLTNQEAQQWVSGWRLNADSVLWGGHKVFMVKPEEPFQPVKEATQL [I110Q] | 0.0489 | 0.0594 |  | 0.0406 |  |  | 0.0468 |  | 0.0554 |  | 0.0641 | 0.0503 | 0.0626 | 0.053 |  | 0.0541 |  | 0.0516 | 0.0604 |
